Measurements reported in a collection of fitness landscapes (doi:10.1126/science.1257360).
This is one part of the list.

B1: PhoQ; a variant is named by its letters at X, in order, P23837 (parent)
chain: MKKLLRLFFPLSLRVRFLLATAAVVLVLSLAYGMVALIGYSVSFDKTTFRLLRGESNLFYTLAKWENNKLHVELPENIDKQSPTMTLIYDENGQLLWAQRDVPWLMKMIQPDWLKSNGFHEIEADVNDTSLLLSGDHSIQQQLQEVREDDDDAEMTHSVAVNVYPATSRMPKLTIVVVDTIPVELKSSYMVWSWFIYVLSANLLLVIPLLWVAAWWSLRPIEALAKEVRELEEHNRELLNPATTRELTSLVRNLNRLLKSERERYDKYRTTLTDLTHSLKTPLXXLQXXLRSLRSEKMSVSDAEPVMLEQISRISQQIGYYLHRASMRGGTLLSRELHPVAPLLDNLTSALNKVYQRKGVNISLDISPEISFVGEQNDFVEVMGNVLDNACKYCLEFVEISARQTDEHLYIVVEDDGPGIPLSKREVIFDRGQRVDTLRPGQGVGLAVAREITEQYEGKIVAGESMLGGARMEVIFGRQHSAPKDE

Variants of: B1
Experiment: enrichment ratio after two sorts for PhoP signalling (ratio (wild type AVST 3.29)); higher = more functional
Conditions: with PhoP (E. coli)

Variant | enrichment ratio
IVHW | ≤ 0.25
KPAE | ≤ 0.25
AMGV | ≤ 0.25
YMEL | ≤ 0.25
WYFC | ≤ 0.25
GHTW | ≤ 0.25
CFHY | ≤ 0.25
SGFQ | 2.13
SKLV | 12
EWTR | ≤ 0.25
SIFD | ≤ 0.25
MKSC | ≤ 0.25
MISC | 23
TNVY | ≤ 0.25
GRSP | ≤ 0.25
AAII | 12.4
GYCG | ≤ 0.25
TAKG | ≤ 0.25
GSKP | ≤ 0.25
DKMP | ≤ 0.25
QNSQ | 2.33
DYDF | ≤ 0.25
NKTF | ≤ 0.25
YKLM | 1.97
KRLF | ≤ 0.25
METP | ≤ 0.25

Variant | enrichment ratio
GTAA | ≤ 0.25
VALF | 2.09
STEV | ≤ 0.25
SAAI | 7.86
MFWN | ≤ 0.25
KNFL | ≤ 0.25
YYQD | ≤ 0.25
LFLA | ≤ 0.25
LHET | ≤ 0.25
VVMV | ≤ 0.25
ADEA | ≤ 0.25
HIKW | ≤ 0.25
YKMP | ≤ 0.25
AKYL | ≤ 0.25
TAKS | ≤ 0.25
DEPV | ≤ 0.25
SLCQ | 9.86
WFNL | ≤ 0.25
QAMR | ≤ 0.25
ADMI | 12.7
AGCN | 0.292
NVWW | ≤ 0.25
HKPK | ≤ 0.25
WHVP | ≤ 0.25
QINF | ≤ 0.25
INIC | ≤ 0.25

Variant | enrichment ratio
ANVI | 5.15
GRQL | ≤ 0.25
PQGA | ≤ 0.25
DEQL | ≤ 0.25
GFDP | ≤ 0.25
YMSE | ≤ 0.25
AENH | 0.296
AGTR | ≤ 0.25
TWNN | 0.76
SQTH | 3.03
KDQN | ≤ 0.25
TIHI | 7.71
RDRD | ≤ 0.25
TYVI | ≤ 0.25
DPMS | ≤ 0.25
VYRR | ≤ 0.25
RWES | ≤ 0.25
VGQV | ≤ 0.25
GPYC | ≤ 0.25
EPMC | ≤ 0.25
MILV | 13
SFSP | ≤ 0.25
CTSF | 3.85
VMFF | ≤ 0.25
QSLL | 0.391
PGHS | ≤ 0.25

Variant | enrichment ratio
VFFP | ≤ 0.25
KTFF | ≤ 0.25
FCGG | ≤ 0.25
EHFS | ≤ 0.25
IGEL | ≤ 0.25
RETF | ≤ 0.25
NWWH | ≤ 0.25
VHQV | ≤ 0.25
YCDW | ≤ 0.25
EDAV | ≤ 0.25
GKCG | ≤ 0.25
GNKQ | ≤ 0.25
TSCV | 17.3
IYGM | ≤ 0.25
FGYT | ≤ 0.25
WNGD | ≤ 0.25
DDMY | ≤ 0.25
NDTD | ≤ 0.25
GSGA | ≤ 0.25
QKFT | ≤ 0.25
PNNS | ≤ 0.25
VDTM | ≤ 0.25
GKLF | ≤ 0.25
ELEC | ≤ 0.25
TLSD | 0.963
GMIG | ≤ 0.25

Variant | enrichment ratio
SHAP | ≤ 0.25
ERRQ | ≤ 0.25
NPAS | ≤ 0.25
HGCS | ≤ 0.25
ISKC | ≤ 0.25
ETLE | ≤ 0.25
HCFA | ≤ 0.25
TPNL | ≤ 0.25
QYSN | ≤ 0.25
QGLR | ≤ 0.25
GGYD | ≤ 0.25
EEQN | ≤ 0.25
IYDG | ≤ 0.25
TIIM | ≤ 0.25
ETFF | ≤ 0.25
YAFG | ≤ 0.25
LNIW | ≤ 0.25
QTDT | 8.6
EYHF | ≤ 0.25
YWSS | ≤ 0.25
NQCH | ≤ 0.25
YQPM | ≤ 0.25
KTNT | ≤ 0.25
WSVG | ≤ 0.25
KSAC | ≤ 0.25
VEYQ | ≤ 0.25

Variant | enrichment ratio
STHW | ≤ 0.25
VLLF | ≤ 0.25
ISHT | ≤ 0.25
HSHM | ≤ 0.25
LDIR | ≤ 0.25
QAQK | ≤ 0.25
LTRE | ≤ 0.25
IDLV | ≤ 0.25
PPSA | ≤ 0.25
QNIE | ≤ 0.25
AEYY | ≤ 0.25
GCRG | ≤ 0.25
PPGY | ≤ 0.25
YFDF | ≤ 0.25
ESCC | ≤ 0.25
TLNI | 1.09
SLMT | ≤ 0.25
PDFY | ≤ 0.25
ARLQ | 0.516
PVKG | ≤ 0.25
DEPC | ≤ 0.25
DHMT | ≤ 0.25
LSDF | ≤ 0.25
